Laboratory results from paper PMC6212790.
Some of the results follow. At the low end of the ranking, values are background and their order means little.
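Note: rank score from −0.5 (least bound) to 0.5 (best bound).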

The sequences below were run against T1, GST-Rok (full length) (UniProt O34857) (assay: protein binding microarray). Conditions: Rok is a gene silencer of Bacillus subtilis; high values mean tight binding; most listed sequences are background and not binding sites; double strand, one strand shown.
T1 sequence: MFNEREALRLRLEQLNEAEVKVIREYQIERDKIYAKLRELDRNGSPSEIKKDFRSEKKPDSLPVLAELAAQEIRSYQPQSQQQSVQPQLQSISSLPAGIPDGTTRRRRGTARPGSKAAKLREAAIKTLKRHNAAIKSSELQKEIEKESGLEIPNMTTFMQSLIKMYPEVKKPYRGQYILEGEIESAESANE
CGGTCCTC was tested, and the binding signal was -0.286 E-score.
With AGCCGTAT the binding signal was -0.0672 E-score.
Work on ACGTAGGG yielded a binding signal of -0.299 E-score.
With AACATAAC the binding signal was 0.26 E-score.
For TGAAACCA, the binding signal was 0.00302 E-score.
CATGGGCC showed a binding signal of -0.295 E-score.
ACAAGCTA showed a binding signal of 0.118 E-score.
Sequence GATCACGC has a binding signal of -0.219 E-score.
For ACGCGTCT, the binding signal was -0.00477 E-score.
Sequence GGGCTTTA has a binding signal of -0.275 E-score.
With ACTGGAAA the binding signal was 0.0821 E-score.
For GATGTTGA, the binding signal was 0.0108 E-score.
Work on ACAGACCG yielded a binding signal of -0.19 E-score.
Sequence GCAGAACC has a binding signal of -0.0431 E-score.
Work on AATTCCCA yielded a binding signal of 0.195 E-score.
GCGCACTA showed a binding signal of -0.0999 E-score.
Sequence ATAATGCG has a binding signal of 0.312 E-score.
For GGCAGGGA, the binding signal was -0.385 E-score.
AATTATGT was tested, and the binding signal was 0.289 E-score.
CGATTTTC gave a binding signal of -0.137 E-score.
TGTAGGAA showed a binding signal of 0.0806 E-score.
In the case of AACGAAGA, the binding signal is reported as -0.00118 E-score.
In the case of CGGAGGAA, the binding signal is reported as -0.194 E-score.
In the case of TCTGCCCA, the binding signal is reported as -0.14 E-score.
ACCTGGAC gave a binding signal of -0.098 E-score.
For AAGCAAGG, the binding signal was -0.19 E-score.
Work on CTAATCTA yielded a binding signal of 0.362 E-score.
For AGTATAAT, the binding signal was 0.301 E-score.
AATAACGC was tested, and the binding signal was 0.0275 E-score.
Work on GTCATGCA yielded a binding signal of -0.122 E-score.
ACCGCCCA was tested, and the binding signal was -0.194 E-score.
ACATCTTC gave a binding signal of 0.0126 E-score.
For ACTGAATC, the binding signal was 0.0706 E-score.
With ATCAAGCG the binding signal was -0.129 E-score.
For GGTCCATA, the binding signal was 0.0263 E-score.
GCTGTTCA was tested, and the binding signal was -0.0433 E-score.
Sequence ATTTGTAA has a binding signal of 0.286 E-score.
For AAGGACTC, the binding signal was -0.131 E-score.
CTTCGCTA showed a binding signal of 0.133 E-score.
GTGACTCA gave a binding signal of -0.06 E-score.
In the case of CGGCATGC, the binding signal is reported as -0.164 E-score.
GAGTCTAA showed a binding signal of 0.0229 E-score.
For ACTTACGA, the binding signal was 0.183 E-score.
CGAAAGAG showed a binding signal of -0.217 E-score.
ACGCCATG was tested, and the binding signal was -0.0833 E-score.
AATCTCCG was tested, and the binding signal was 0.0469 E-score.
Sequence GGCCGTTA has a binding signal of -0.101 E-score.
In the case of GACGGTCA, the binding signal is reported as -0.138 E-score.
With CGGATTCA the binding signal was -0.0882 E-score.
With AATGAGAT the binding signal was 0.175 E-score.
AACGTTCA showed a binding signal of -0.0105 E-score.
In the case of ACAAGTCC, the binding signal is reported as -0.211 E-score.
Work on CTTGGGAC yielded a binding signal of -0.314 E-score.
With CAAGCGCC the binding signal was -0.222 E-score.
Sequence ATGATCCG has a binding signal of -0.0331 E-score.
AAAAATAA gave a binding signal of 0.292 E-score.
In the case of GGTGTATA, the binding signal is reported as 0.256 E-score.
Work on CCGAATCG yielded a binding signal of -0.0381 E-score.
CTCACCTA gave a binding signal of 0.121 E-score.
Work on GGCCGTAA yielded a binding signal of -0.189 E-score.
GCCCCCAC gave a binding signal of -0.309 E-score.
ACTTTCCA was tested, and the binding signal was 0.0699 E-score.
AAGTTTAA was tested, and the binding signal was -0.0141 E-score.
In the case of AACTCTGG, the binding signal is reported as -0.176 E-score.
Work on TCAGGTCA yielded a binding signal of -0.07 E-score.
For CACGACAG, the binding signal was -0.108 E-score.
CCAGTCGG gave a binding signal of -0.248 E-score.
Sequence AAATGTAA has a binding signal of 0.389 E-score.
CCTAAACA showed a binding signal of -0.128 E-score.
CGACGACA was tested, and the binding signal was -0.126 E-score.
Sequence ACTCTGGG has a binding signal of -0.049 E-score.
AGCCAGAC gave a binding signal of -0.135 E-score.
ATCAACCG gave a binding signal of -0.0968 E-score.
With AACATCAT the binding signal was -0.0276 E-score.
In the case of GATTGACC, the binding signal is reported as 0.036 E-score.
In the case of CACTACTA, the binding signal is reported as 0.354 E-score.
In the case of ATGAAGAC, the binding signal is reported as 0.000233 E-score.
For CGCCTCCC, the binding signal was -0.289 E-score.
With TGTTCAAA the binding signal was -0.0535 E-score.
CTCCCTAA was tested, and the binding signal was -0.172 E-score.
With AGATTCGC the binding signal was -0.117 E-score.
With AATGCTCG the binding signal was -0.0567 E-score.
In the case of CTATACAG, the binding signal is reported as 0.248 E-score.
For ACGTTGAA, the binding signal was 0.0459 E-score.
GCCCCAAA gave a binding signal of -0.273 E-score.
GAATTATC was tested, and the binding signal was 0.236 E-score.
